Test results reported in PubChem BioAssay AID924 (National Center for Advancing Translational Sciences (NCATS), 2007).
Values joined by “and” are separate entries in the source; they are usually repeats but may differ in a detail not shown here. Identical values can stand only once. Hit rate of the full screen: of about 130,000 compounds, about 1,200 (0.92%) were called active. The shares of active, inactive and inconclusive entries below differ from those in the screen. Calls follow the shape of the dose curve; as a rule, active = well fitted cell-killing curve with a large enough effect; inconclusive = small, poorly fitted or top-dose-only effect; inactive = no such curve, though single readings can be large or run the other way. A potency beside an inconclusive call is a rough fit, not a confirmed value.

experiment: qHTS Screen for Compounds that Selectively Target Cancer Cells with p53 Mutations: Cytotoxicity of p53ts Cells at the Permissive Temperature; settings: H1299-p53A138V at 32C, ATP luminescence viability, 24 h; activity change, negative = cytotoxicity: at 46.1 µM (top of the series); also: nearly all actives have a fitted effect of over 55% in size;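 as to activity change, negative = cytotoxicity: 0% = DMSO and -100% = full killing by reference compound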
Excerpt: NIH Chemical Genomics Center [NCGC] NIH Molecular Libraries Screening Centers Network [MLSCN] MLSCN Grant: 1 X01 MH079844-01 Assay Submitter (PI): Dr. SUN, YI, University of Michigan NCGC Assay Overview: Synthetic Lethal Screen for Compounds to Kill Cancer Cells with p53 Mutation. Tumor suppressor gene p53 serves as a major cellular barrier against tumorigenesis. […] The goal of this screening is to identify small molecule probes that selectively kill cancer cells with mutations in p53. This screening was carried out using two lines of H1299 lung cancer cells. The H1299-p53 A138V line express a temperature sensitive p53 mutant (p53ts) in which the mutant p53 protein (A138V) is in the mutant confirmation when grown at 39C (the nonpermissive temperature) and in the wild type conformation when grown at 32C (the permissive temperature). A H1299-neo line (p53 null) grown at both 39C and 32C were used as counter-screens to filter out false positive associated with temperature shifting. The small molecular compounds that selectively target mutant p53-containing cancer cells were selected as candidate probes for further study. A cytotoxicity assay based on the measurement of ATP contents in cells was used in this screen. Concentration-responses of all the compounds in the library collection were determined in qHTS using the cell lines and temperature conditions as above.
NCGC Assay Protocol Summary: Both the H1299-p53A138V and H1299-neo cell lines were provided by Dr.Yi Sun, a PI at the University Michigan. The cells were maintained and cultured at 37C. The resuspended frozen cells were used to plate the cells in the 1536-well assay plates at a density of 600 cells per well in 5 ul medium. The assay plates with the cells were incubated at 37C for 16 to 30 hours before the experiments. The library compounds in DMSO solution were added to the cells in assay plates and incubated 24 hours at 39C (for mutant p53 conformation) or 32C (for normal p53 conformation as control). An ATP_lite assay kit (PerkinElmer) was used to determine the cell viability. Tomaxifen (100uM) was used as the positive control for cell killing. Data were normalized to the controls for basal activity (DMSO only) and 100% killing (100uM tamoxifen). AC50 values were determined from concentration-response data modeled with the standard Hill equation. P53 assay protocol: 1. Reagent; 5 uL H1299-p53A138V or H1299-neo cell cells/well 2. Time; overnight; 37C incubation 3. Compounds; 23 nL; 5.9 nM to 46 uM 4. Controls; 23 nL; Tamoxifen 100 uM 5. Time; 24 hr; 37C incubation 6. Reagent; 3 uL; ATP_Lite reagent 7. Time; 20 min; Room Temperature 8. Detection; Luminescence; Viewlux plate reader Keywords: p53, synthetic lethal, cancer, cell viability, cytotoxicity, H1299 cell line, luminescence, MLSMR, MLSCN, NIH Roadmap, qHTS, NCGC
Potency is read from the fitted curve at half-maximal effect; tags tell the direction and shape of the fitted curve.

Compound	Potency	activity change, negative = cytotoxicity
Cc1ccccc1CN1CCC(CNC(=O)c2cc3ccc4cccnc4c3[nH]2)CC1	inconclusive: 20 µM [cytotoxic, single point]	
O=C1CC(c2nnc(Cc3ccc(F)cc3)o2)CN1c1ccccc1 (stereo unspecified)		inactive: -3.58%
CCC1CCCCN1C(=O)CSc1n[nH]c(-c2ccccc2)n1 (stereo unspecified)	inconclusive: 25.1 µM [cytotoxic, partial curve, poor fit]	
CCOC(=O)c1cccc(NC(=O)CC2C(=O)N(c3ccccc3)C(=O)N2Cc2ccco2)c1 (stereo unspecified)		inactive: 0.964%
Cc1ccc(NC(=O)c2cc(C)on2)cc1	inconclusive: 15.8 µM [cytotoxic, single point]	
CCC(=O)Nc1cccc(NC(=O)COc2ccc(OC)cc2)c1		inactive: -24.8%
N[C@H](Cc1cc(I)c(Oc2cc(I)c(O)c(I)c2)c(I)c1)C(=O)O		inactive: 2.47% [at 20.6 µM]
COc1ccc(-c2nc(=S)[nH][nH]2)cc1		inactive: -13.3%
CCc1ccccc1N1CC(c2nc3ccccc3n2CCCCOc2ccccc2OC)CC1=O (stereo unspecified)	inconclusive: 31.6 µM [cytotoxic, single point]	
CC1(C)C=Cc2cc3ccc(=O)oc3cc2O1	inconclusive: 10 µM [cytotoxic, partial curve]	
O=C(Cc1cc(=O)[nH]c(=O)[nH]1)N1CCC(Cc2ccccc2)CC1	active: 10 µM	
O=S(=O)(NCCc1ccc(Cl)cc1)c1ccc(N2CCCCS2(=O)=O)cc1		inactive: -4.12%
Cc1cc(C)cc(OC(=O)c2cc(-c3ccc4c(c3)OCCO4)on2)c1	inconclusive: 15.8 µM [cytotoxic, single point]	
CN(C)CCCN1c2ccccc2Sc2ccc(Cl)cc21	inactive and inconclusive: 20 µM [cytotoxic, single point]	
Cn1c(=O)c2c(ncn2CN2CCN(Cn3cnc4c3c(=O)n(C)c(=O)n4C)CC2)n(C)c1=O		inactive: -1.69% [at 9.22 µM]
COc1ccccc1NC(=O)C1=C(C)NC(=O)NC1c1ccc(C)cc1 (stereo unspecified)	inconclusive: 12.6 µM [cytotoxic, partial curve]	
COc1ccc(C(=O)N(Cc2ccco2)Cc2cccs2)c(O)c1		inactive: -8.4%
Cc1cccc(C)c1OCC(=O)Nc1cccc(NC(=O)c2ccco2)c1	inconclusive: 31.6 µM [cytotoxic, single point]	

Compound	Potency	activity change, negative = cytotoxicity
O=C(Nc1ccccn1)c1ccc([N+](=O)[O-])cc1Cl	inconclusive: 0.0158 µM [cytotoxic, full curve, poor fit]	
Cc1cccc(C(=O)Nc2nnc(S(=O)(=O)N3CCC(C)CC3)s2)c1		inactive: 3.11%
O=C(NCc1ccco1)c1ccc(Cn2c(SCc3ccc(F)cc3)nc3cccnc32)cc1	inconclusive: 11.2 µM [cytotoxic, partial curve]	
COc1ccc(-n2ncc3c(NC(C)(C)CO)ncnc32)cc1	active: 12.6 µM	
Cc1nc2cccnc2n1C1CCN(S(C)(=O)=O)CC1		inactive: 5.03%
CCCOC(=O)Nc1ccc(N2CCCCC2)cc1	active: 12.6 µM	
COc1cccc2c1ncc1c(-c3ccc(C)cc3)nn(-c3cccc([N+](=O)[O-])c3)c12		inactive: 5.18%
CC(C)CC(=O)N1c2nc(C(C)C)nn2C2(CCCCC2)[C@@H]2CCCC[C@@H]21		inactive: 2.03%
Cc1ccccc1CS(=O)(=O)CCC(=O)NCCCN1CCN(c2ccccc2F)CC1		inactive: -5.02%
CN(C)S(=O)(=O)c1nc(Cl)c2[nH]cnc2n1		inactive: -3.55% [at 9.22 µM]
COc1ccc2c(Cl)c(C(=O)NCCCn3ccnc3)sc2c1	inconclusive: 31.6 µM [cytotoxic, single point]	
Oc1[nH]c2ccccc2c1/C=N/c1nccs1	inconclusive: 12.6 µM [cytotoxic, partial curve]	
CCOc1ccc(NC(=O)c2c(NCc3cccnc3)sc3c2CCCC3)cc1	inconclusive: 35.5 µM [cytotoxic, single point]	
CCc1cccc(C)c1NC(=O)CSc1n[nH]c(-c2ccccc2)n1		inactive: 9.35%
CCc1ccc(-c2nc(CN3CCC(C(=O)NCCN(CC)c4ccccc4)CC3)c(C)o2)cc1		inactive: -0.852%
CCOc1ccc(-c2cc(C(=O)N3CCN(c4ccccn4)CC3)c3ccccc3n2)cc1	active: 2.51 µM	
Cc1ccc2[nH]cc(C(c3ccccc3)c3ccc(Cl)s3)c2c1 (stereo unspecified)	inconclusive: 20 µM [cytotoxic, single point]	
COc1ccc(NC(=O)c2ccc(Cc3ccc(C)cc3)o2)cc1	inconclusive: 3.16 µM [cytotoxic, full curve, poor fit]	
